Results as given in patent publication US20190225675A1 (TUFTS UNIVERSITY, published 2019).

Molecular target: Clostridium difficile toxin A (TcdA) (Clostridium difficile)
Assay: cell-based or functional assay

B1: VNA2-Tcd (VHH heterotetramer AH3/5D/E3/AA6) (other)
chain: [skipping about 100 residues]GSGSGHMHHHHHHSSGLVPRGSGMKETAAAKFERQHMDSPDLGTDDDDKAMAISDPNSGAPVPYPDPLEPRAAAQVQLVESGGGLVQPGGSLRLSCAASGFTLDYSSIGWFRQAPGKEREGVSCISSSGDSTKYADSVKGRFTTSRDNAKNTVYLQMNSLKPDDTAVYYCAAFRATMCGVFPLSPYGKDDWGKGTLVTVSSEPKTPKPQPTSAIAGGGGSGGGGSGGGGSAAAQLQLVESGGGLVQPGGSLRLSCEASGFTLDYYGIGWFRQPPGKEREAVSYISASARTILYADSVKGRFTISRDNAKNAVYLQMNSLKREDTAVYYCARRRFSASSVNRWLADDYDVWGRGTQVAVSSEPKTPKPQTSALVGGGGSGGGGSGGGGSLQAMAAAQVQLVESGGGLVQTGGSLRLSCASSGSIAGFETVTWSRQAPGKSLQWVASMTKTNNEIYSDSVKGRFIISRDNAKNTVYLQMNSLKPEDTGVYFCKGPELRGQGIQVTVSSEPKTPKPQAIAGGGGSGGGGSGGGGSLQGQVQLVESGGGLVQPGGSLRLSCAASGFTFSDYVMTWVRQAPGKGPEWIATINTDGSTMRDDSTKGRFTISRDNAKNTLYLQMTSLKPEDTALYYCARGRVISASAIRGAVRGPGTQVTVSSEPKTPKPQPARQGAPVPYPDPLEPRGGGSDICLPRWGCLWED
- IC50, cell-based neutralization (CT26 cell rounding): < 1 nM
